About 550 (1.1%) of roughly 48,000 compounds were called active. About 4% were inconclusive and are not listed. Rule as the data show it: active = potency below about 15 µM; inconclusive = mostly about 16 µM to 33 µM; inactive = weaker than that. The list shows a part of the results.
Potency is read from the fitted curve at half-maximal effect.

Chain of UniProt P04062 (P04062 whole entry, looked up): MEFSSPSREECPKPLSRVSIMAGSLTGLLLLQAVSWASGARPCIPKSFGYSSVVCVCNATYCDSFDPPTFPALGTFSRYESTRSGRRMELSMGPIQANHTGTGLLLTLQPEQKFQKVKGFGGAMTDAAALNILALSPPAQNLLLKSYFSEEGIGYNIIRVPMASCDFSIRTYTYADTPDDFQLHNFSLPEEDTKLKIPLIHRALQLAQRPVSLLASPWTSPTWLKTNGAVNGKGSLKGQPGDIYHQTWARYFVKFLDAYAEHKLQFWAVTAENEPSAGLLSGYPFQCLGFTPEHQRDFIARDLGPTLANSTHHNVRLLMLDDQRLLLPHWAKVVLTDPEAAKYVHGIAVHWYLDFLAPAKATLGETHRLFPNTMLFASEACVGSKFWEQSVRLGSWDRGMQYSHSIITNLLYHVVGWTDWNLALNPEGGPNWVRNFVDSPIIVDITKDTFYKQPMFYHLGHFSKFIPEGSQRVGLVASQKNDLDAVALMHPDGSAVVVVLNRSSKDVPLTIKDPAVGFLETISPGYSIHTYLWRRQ

In this assay the target is Lysosomal acid glucosylceramidase (Homo sapiens) (UniProt P04062). Nature of the assay: Glucocerebrosidase.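 Also: the screen sought inhibitors.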 The settings on record: purified enzyme, resorufin glucoside fluorescence (screen aimed at inhibitors), 20 min. In short, it runs like this:
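Wild-type enzyme at 0.2 nM final in 50mM citric acid/KH2PO4, 10mM sodium taurocholate, 0.01% tween-20, pH 5.9, with resorufin beta-D-glucopyranoside at 30 uM final. Compounds titrated, 20 min at RT, red fluorescence read; AC50 from titration.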
On to `Nc1nc(NC(=O)c2cccc(S(=O)(=O)N3CCCCCC3)c2)nc(-c2ccccc2)n1`, for which the Potency was inactive: > 76.9 µM.

Regarding `CCOC(=O)CNC(=O)c1sc(NC(=O)c2ccccc2F)nc1C`, the Potency is inactive: > 76.9 µM.

As to `COC(=O)c1[nH]c2ccc(C)cc2c1NC(=O)CN1CCN(C(=O)c2ccccc2)CC1`, the Potency was inactive: > 76.9 µM.

Regarding `CC(=O)c1cccc(S(=O)(=O)N2CCC(n3nnc4cc(F)ccc43)CC2)c1`, the Potency was inactive: > 76.9 µM.

For the compound `Clc1ccc2nc(N3CCN(c4ccccc4)CC3)sc2c1`, the Potency is inactive: > 76.9 µM.

In the case of `COc1ccccc1NC(=O)Cc1noc(CSc2cc(C)c3ccccc3n2)n1`, the Potency is inactive: > 76.9 µM.

Consider `Cc1cccc(N2CC(C(=O)O)CC2=O)c1` (stereo unspecified), for which the Potency is inactive: > 76.9 µM.

On to `CCCCN(C)C(=O)C1CCN(Cc2ccccn2)CC1`, for which the Potency is inactive: > 76.9 µM.

As to `O=c1/c(=C/c2ccco2)sc2nc(-c3ccccc3Br)nn12`, the Potency entry was “inactive”.

Turning to `CCOC(=O)c1c(C)[nH]c2ccc(O)cc12`, the Potency was inactive: > 76.9 µM.

In the case of `Nc1nc(CSc2ccccn2)nc(Nc2ccccc2)n1`, the Potency was inactive: > 76.9 µM.

`COc1ccc(CN(Cc2cc3cc(C)ccc3[nH]c2=O)C(=O)N(C)C)cc1`: the Potency is inactive: > 76.9 µM.

For `COc1ccc(C2C(C(=O)NCc3ccco3)CCC(=O)N2c2ccc(OC)cc2)cc1` (stereo unspecified), the Potency was inactive: > 76.9 µM.

On to `COc1ccc(NC(=O)N2CC(C)OC(C)C2)cc1OC` (stereo unspecified), for which the Potency was inactive: > 76.9 µM.

`COc1ccc(C(=O)CSc2nnc(-c3ccc(S(=O)(=O)N4CCOCC4)cc3)o2)cc1`: the Potency is inactive: > 76.9 µM.

Regarding `Cc1nc(NC(=O)c2cccnc2)ccc1Br`, the Potency is inactive: > 76.9 µM.

Turning to `CCOC(=O)Cc1nn(CCc2ccccn2)c(=O)c2ccccc12`, the Potency is inactive: > 76.9 µM.

In the case of `OC(CNCc1ccco1)Cn1c2ccccc2c2ccccc21` (stereo unspecified), the Potency is inactive: > 76.9 µM.

On to `OC(COCc1ccco1)CN1CCN(C(c2ccccc2)c2ccccc2)CC1` (stereo unspecified), for which the Potency is inactive: > 76.9 µM.

Take `CCn1c(CSc2nc3ccccc3s2)nnc1SCC(=O)c1ccc2c(c1)OCCO2`: the Potency result is “inactive”.

For `NC(=O)CCCC1=NS(=O)(=O)c2ccccc2N1`, the Potency is inactive: > 76.9 µM.

As to `CC(C)CNS(=O)(=O)c1ccc(S(=O)(=O)N2CCCN(Cc3ccccc3)C2)cc1`, the Potency is inactive: > 76.9 µM.

With `Cc1cc(C(F)(F)F)c2c(C)nn(CCc3nn[nH]n3)c2n1`, the Potency is inactive: > 76.9 µM.

On to `O=C(O)C1CCCCC1C(=O)Nc1ccccc1F` (stereo unspecified), for which the Potency is inactive: > 76.9 µM.

As to `COc1ccc(NC(=O)CN(C2CCCCC2)S(C)(=O)=O)cc1OC`, the Potency was inactive: > 76.9 µM.

Turning to `CCn1nnc(-c2ccccc2NS(=O)(=O)c2ccc(C(=O)OC)cc2)n1`, the Potency was inactive: > 76.9 µM.

`O=C(c1ccco1)N1CCN(C(=O)C2CCN(S(=O)(=O)c3cccs3)CC2)CC1`: the Potency is inactive: > 76.9 µM.

As for `COc1ccc(N2CCN(CCNC(=O)c3cccn4c(=O)c5ccc(Cl)cc5nc34)CC2)cc1`, the Potency was inactive: > 76.9 µM.

As to `COC(=O)c1[nH]c(C)c(/C(O)=C2\C(=O)C(=O)N(CCN3CCOCC3)C2c2cccs2)c1C` (stereo unspecified), the Potency was inactive: > 76.9 µM.

Regarding `CSc1ccccc1NC(=O)CCn1c(=O)sc2ccccc21`, the Potency was inactive: > 76.9 µM.

For the compound `Nc1nc(CSc2n[nH]c(-c3ccccc3)n2)nc(Nc2ccccc2)n1`, the Potency result is “inactive”.

Regarding `O=C(O)CCN1CCOCC1`, the Potency was inactive: > 76.9 µM.

For `Cc1cc(=O)oc2ccc(OC(=O)c3cccc(S(=O)(=O)N4CCOCC4)c3)cc12`, the Potency is inactive: > 76.9 µM.

With `O=C(NCCc1ccccc1)c1ccc(=O)oc1`, the Potency is inactive: > 76.9 µM.

Turning to `CCCCCC1CC(CC(=O)O)C(=O)O1` (stereo unspecified), the Potency is inactive: > 76.9 µM.

Consider `CCC(C)C(NC(=O)c1ccc(Cl)cc1)C(=O)O` (stereo unspecified), for which the Potency was inactive: > 76.9 µM.

As to `CCOC(=O)C1C(=O)C=C(c2ccc(OC)cc2)CC1c1ccco1` (stereo unspecified), the Potency is inactive: > 76.9 µM.

With `O=S(=O)(Nc1ccc(N2CCCCC2)cc1)c1cccs1`, the Potency is inactive: > 76.9 µM.

Take `O=C(COc1ccccc1)Nc1nc2ccccc2[nH]1`: the Potency was inactive: > 76.9 µM.

For the compound `Nn1c(CSc2ccccn2)nc2ccccc2c1=O`, the Potency was inactive: > 76.9 µM.

For the compound `CCOc1ccccc1NC(=O)CSc1nnc(-c2ccco2)n1Cc1ccco1`, the Potency is inactive: > 76.9 µM.

Take `CNC(=O)C1CC(=O)N(c2ccc(F)c(Cl)c2)C1` (stereo unspecified): the Potency was inactive: > 76.9 µM.

Take `CCC(=O)N(CCc1ccccc1C)Cc1cc2cc3c(cc2[nH]c1=O)OCO3`: the Potency is inactive: > 76.9 µM.

As for `Cc1cc(C)n(-c2nc3ccccc3nc2N2CCN(C(=O)c3ccc(F)cc3)CC2)n1`, the Potency was inactive: > 76.9 µM.

As for `CCN(CC)C(=O)COc1ccc(Br)cc1Cl`, the Potency is inactive: > 76.9 µM.

As for `O=C(NCCCn1ccnc1)c1cn(Cc2ccc(F)cc2)nn1`, the Potency is inactive: > 76.9 µM.

On to `O=C(CSc1nnc(-c2cccs2)o1)c1cccs1`, for which the Potency was inactive: > 76.9 µM.

Regarding `COc1ccc(NCc2ccc3c(c2)OCO3)cc1Cl`, the Potency is inactive: > 76.9 µM.

As to `N#Cc1cc2ccccc2nc1SCC(=O)Nc1ccc(S(=O)(=O)N2CCCC2)cc1`, the Potency is inactive: > 76.9 µM.

`CCn1c(SCC(=O)n2c(C)c(C)c3ccccc32)nnc1-c1ccco1`: the Potency is inactive: > 76.9 µM.

Take `COCCN(C(=O)CNC(=O)c1cccs1)C(C(=O)NC1CCCCC1)c1ccco1` (stereo unspecified): the Potency is inactive: > 76.9 µM.

`COc1ccccc1N(CC(=O)N1CCCCC1)S(=O)(=O)c1ccccc1`: the Potency is inactive: > 76.9 µM.

With `O=C(NCc1ccco1)C(Cc1ccccc1)N1C(=O)C2C3C=CC(C3)C2C1=O` (stereo unspecified), the Potency is inactive: > 76.9 µM.

On to `CCOC(=O)CNC(=O)c1cnn2cccnc12`, for which the Potency is inactive: > 76.9 µM.

With `CCCc1nnc(NC(=O)CN2C(=O)C3C4C=CC(C4)C3C2=O)s1` (stereo unspecified), the Potency was inactive: > 76.9 µM.

As for `Cc1nnc(SCC(=O)c2c(N)n(C)c(=O)n(C)c2=O)n1Cc1ccccc1`, the Potency was inactive: > 76.9 µM.

As to `O=C(Cn1c(=O)n(Cc2ccc3c(c2)OCO3)c(=O)c2ccccc21)N1CCCc2ccccc21`, the Potency is inactive: > 76.9 µM.

Take `Cc1cc(C)n(C(=O)C2CCCN2S(=O)(=O)c2ccc(Cl)cc2)n1` (stereo unspecified): the Potency result was “inactive”.

Regarding `Cc1ccc(C(C)n2cc(C(=O)NCc3ccncc3)nn2)cc1` (stereo unspecified), the Potency is inactive: > 76.9 µM.

For the compound `O=C(Nc1ccc2c(c1)oc1ccccc12)C1CC1`, the Potency is inactive: > 76.9 µM.

Consider `O=C(CCCN1C(=O)c2ccccc2C1=O)NCCCN1CCOCC1`, for which the Potency is inactive: > 76.9 µM.

Regarding `Cc1ccc2nc(NC(=O)CN(C)S(=O)(=O)c3cccc4nsnc34)sc2c1`, the Potency is inactive: > 76.9 µM.

Consider `COC(=O)c1ccc(Oc2nc(C)cc(Oc3ccccc3)n2)cc1`, for which the Potency was inactive: > 76.9 µM.

Take `Cc1ccc(CNc2ccc(N3CCOCC3)c(C(=O)O)c2)s1`: the Potency result was “inactive”.

In the case of `Cc1nn(Cc2ccccc2Cl)c(C)c1N`, the Potency was inactive: > 76.9 µM.

Regarding `CCOc1ccc(Cc2nc(C)c(CC(=O)N3CCOCC3)c(=O)[nH]2)cc1`, the Potency is inactive: > 76.9 µM.

For `CCOC(=O)c1cc2c(=O)n3cccc(C)c3nc2n(CC2CCCO2)c1=NC(C)=O` (stereo unspecified), the Potency is inactive: > 76.9 µM.

For the compound `CCOC(=O)N1CCN(S(=O)(=O)c2ccc3c(c2)CCN3C(=O)C2CC2)CC1`, the Potency was inactive: > 76.9 µM.

Turning to `OC(c1ccccn1)c1c[nH]c2ccccc12` (stereo unspecified), the Potency was inactive: > 76.9 µM.

As for `O=C(Cn1cnc2ccccc21)OCC(=O)N1CCc2ccccc2C1`, the Potency was inactive: > 76.9 µM.

For `Cc1ccc(-n2c(=O)cc(NCc3cccnc3)[nH]c2=O)cc1`, the Potency was inactive: > 76.9 µM.

For `COc1cc(NC(=O)c2ccco2)c(OC)cc1NC(=O)c1cc(OC)c(OC)c(OC)c1`, the Potency was inactive: > 76.9 µM.

`O=C(COC(=O)C1=COCCO1)NCCCc1ccccc1`: the Potency is inactive: > 76.9 µM.

Regarding `COc1cc2c(cc1OC)C1Cc3ccc(OC)c(OC)c3CN1CC2` (stereo unspecified), the Potency is inactive: > 76.9 µM.

Turning to `Cc1ccc(CSc2nnc(-c3cccs3)n2C)cc1`, the Potency is inactive: > 76.9 µM.

Turning to `COc1ccc2[nH]c(=O)c(CN(Cc3nnnn3Cc3ccco3)C3CCCCC3)cc2c1`, the Potency result is “inactive”.

`COc1ccc(-c2csc(NC(=O)c3cc(C)on3)c2C#N)cc1OC`: the Potency is inactive: > 76.9 µM.

As to `Cc1nn(CC(=O)Nc2cccnc2N2CCOCC2)c(=O)c2ccccc12`, the Potency is inactive: > 76.9 µM.

Take `COc1ccc(CCNC(=O)c2c(O)c3c([nH]c2=O)CCCC3)cc1OC`: the Potency is inactive: > 76.9 µM.

Consider `C=CCn1c(=O)c2ccccc2n2c(SCc3csc(-c4ccccc4)n3)nnc12`, for which the Potency was inactive: > 76.9 µM.

Turning to `CC(C)COc1ccc(C(=O)NCc2ccco2)cc1`, the Potency is inactive: > 76.9 µM.

For `Cc1nc(SCC(=O)Nc2ccnc3ccccc23)n[nH]1`, the Potency is inactive: > 76.9 µM.

On to `C=CCN1C(=O)C2C(C(=O)NCc3ccccc3)C3C=CC2(O3)C1C(=O)NC(C)(C)C` (stereo unspecified), for which the Potency is inactive: > 76.9 µM.

On to `Cc1ccc2c(c1)nnn2C1CCN(CC(=O)Nc2ccc3c(c2)OCCO3)CC1`, for which the Potency was inactive: > 76.9 µM.

With `CN(C)CCCN1C(=O)C(=O)/C(=C(/O)c2ccc(OCc3ccccc3)cc2)C1c1cccnc1` (stereo unspecified), the Potency was inactive: > 76.9 µM.

Regarding `CCOc1ccccc1C(=O)n1nc2nc(C)cc(C)c2c1N`, the Potency is inactive: > 76.9 µM.

On to `CCOC(=O)c1sc(NC(=S)n2cc(C)cn2)c(C(=O)OCC)c1C`, for which the Potency is inactive: > 76.9 µM.

Consider `CNc1oc(-c2ccco2)nc1C#N`, for which the Potency was inactive: > 76.9 µM.

Turning to `CCOC(=O)c1c(NC(=O)CSc2nnc(-c3ccco3)o2)sc(C(C)=O)c1C`, the Potency was inactive: > 76.9 µM.

As for `Cc1ccc(NS(=O)(=O)c2ccc3c(c2)c(=O)n(C)c(=O)n3C)cc1F`, the Potency is inactive: > 76.9 µM.

In the case of `CCn1cc(C(=O)NC2CCC(C)CC2)c(=O)c2cc(S(=O)(=O)N3CCCCC3)ccc21` (stereo unspecified), the Potency is inactive: > 76.9 µM.
